Some of the results follow.

The test system of this assay is PfAP2-HC AP2 domain (GST-tagged). Nature of the assay: gcPBM binding intensity (ln(normalized median fluorescence intensity)); higher = stronger DNA binding. In outline: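 For binding intensity, the highest Masliner-normalised natural-log median intensity across replicate spots of either probe orientation was taken. Protein bound to the array was stained with Alexa488 anti-GST antibody and scanned at 488 nm. The protein, GST-tagged P. falciparum DNA-binding domains from E. coli at about 25 μg on average, had been applied for 1 h to an Agilent 4 × 180k array of primer-extended double-stranded 36-bp intergenic genomic probes and negative controls.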
Consider “ACATGTTCATAATTTTGTACATATTTTTATGAACAT [XGTACX_site3976]”, for which the “gcPBM binding intensity (ln)” value is 9.65. With “ACATACGAAAATTGGAAGGATAGATAAAAAGAAAAT [CACACA_negctrl_site51]” the figure was 9.66; with “AAAAAGCAGGATTATACACACAAATATTTATATGTT [CACACA_site6634]”, 10; with “GCGTAGTTCGGAAGGGTGCTTTTTTGTTAATAAAAA [GTGCAC_site9592]”, 9.42. With “TCTAAACAAATTAATAAAATAAGTATTCAAAATTAT [CACACA_negctrl_site731]” the figure was 9.29; with “GTAAAATTTCGGATTTGTACACATGGCTATGAAAAA [XGTACX_site939]”, 9.66; with “AATATTTATTTTTTTGCACACATATTTTACATTTTA [CACACA_site3182]”, 10.4. With “TTATGTTATAAATACACACACAAAAGAAAAAAAAAA [CACACA_site7414]”, the “gcPBM binding intensity (ln)” value is 10.

As for “TCCCATAATATTAGTAGTACTATTAATATTTTCAGG [XGTACX_site4925]”, the “gcPBM binding intensity (ln)” value was 9.35. With “ATTTCTTTTTTTTCTTGTACACATATTAAATTTATG [XGTACX_site734]”, the “gcPBM binding intensity (ln)” value turned out to be 10. With “TTCTCTATAAATGCTGCACACACATTTAATTATTTA [CACACA_site8828]” the figure was 10. With “TTACAAATATTATAAAGTACAAACCAGTAGATTTTG [XGTACX_site2272]” the figure was 9.63; with “TATTTTTTTTTTTTTTTTTTTACCTTTCCACTCAAA [CACACA_negctrl_site1454]”, 9.21. With “TTTTTTTTTTTTAAAAGTACATAGTAGTAATTATAG [XGTACX_site4232]” the figure was 9.33; with “TCATTCTAAATATAAACACACATAAATATGTACATT [CACACA_site7555]”, 9.76. In the case of “CATAAAAATGGATACACACACATAATATATATATAT [CACACA_site3619]”, the “gcPBM binding intensity (ln)” value was found to be 10.2. With “AAAAAAATTAATGTGTGTACTTAGATATAATGTTTA [XGTACX_site8862]” the figure was 9.84; with “TAATTTTTTTTTTATTGTACTTAATATTTTTAATTT [XGTACX_site5929]”, 9.61. With “ATTATCAAGACATTGCGTACTTAAAAAAAAAAAAAT [XGTACX_site6347]” the figure was 9.4; with “TTATTATTCATATATTCACACATTAAAATTTTTCAA [CACACA_site4243]”, 9.64; with “CATATATAATAATATTGTACATATATAATAATAATA [XGTACX_site3338]”, 9.69. With “ATTTCATACAGACACACACACAAACAAACATATATA [CACACA_site979]” the figure was 11.2; with “GTGAAGGTTTATATGTGTACATATATGTATTATATA [XGTACX_site326]”, 9.94; with “ATTATATATACATATACACACATACGTACATACATA [CACACA_site9194]”, 9.95.

With “TTTTTTTTTTTTAATGCACACAGTGAACTTTTACTT [CACACA_site3567]”, the “gcPBM binding intensity (ln)” value is 9.83. Consider “GACATTTCTTGGGATACATGCATGTCCCAGAACAAA [TGCATGCA_site271]”, for which the “gcPBM binding intensity (ln)” value amounted to 9.48.

For the sequence “TTTAATAAATTGTGTACACAAAACATATAAATTTCG [CACACA_site5644]”, the “gcPBM binding intensity (ln)” value was found to be 9.82. With “AATTCAGCTTTACAACGTACACAATCATATGTCTAT [XGTACX_site8113]” the figure was 9.86; with “TAATACATAAATGATTGTACATAAGAATTGAAACAT [XGTACX_site4583]”, 9.77; with “ATGAAGATTTAAAAATGTACATATGATCTATGTCCT [XGTACX_site8409]”, 9.63. With “TTTTTTTGCCATATTACACACACACCGGTAAACCCC [CACACA_site8475]” the figure was 10.2. With “TATAAATAAATAAACACACACAAATAAAATAAAAAA [CACACA_site7623]” the figure was 10.3. Take “TTTATTTATTTATTCTTATTTTTTTTTTTTTTTACT [CACACA_negctrl_site257]”: the “gcPBM binding intensity (ln)” value stood at 9.49. With “ACATATTAGGGTCATGAACACACAAAAAAAAAAAAA [CACACA_site8218]” the figure was 9.86; with “TATATATATTAAAAACGTACAAAATAAGAATTAATT [XGTACX_site5979]”, 9.73. With “GGATATATTTTATGTACACACACATATAAGGGATTA [CACACA_site4181]” the figure was 9.95; with “TCTAGGAAAAATTATAGTACACAAAAATATATATAT [XGTACX_site4136]”, 9.56; with “TATGACACTTTGAAGGGTACATGCAGAAAAAAAAAA [XGTACX_site569]”, 9.52. “ATATATACATATACTATATCTTTTATTTTTATTATT [GTGCAC_negctrl_site127]”: the “gcPBM binding intensity (ln)” value was found to be 9.92. For “TTATATGCACTTTTTGCACACGTATGAATAACAAAA [CACACA_site1811]”, the “gcPBM binding intensity (ln)” value is 9.69. For the sequence “TATCAAAATAAATGCACACAAATTGCACATATCTAT [CACACA_site1097]”, the “gcPBM binding intensity (ln)” value amounted to 9.9. For the sequence “ATTTATATGTAGATGTGTACTTAATTGTAATGTGTT [XGTACX_site6422]”, the “gcPBM binding intensity (ln)” value came out at 9.94. With “CAAAAACATACCTACACACACAATATGTATAAATAA [CACACA_site7617]” the figure was 10.8.

For the sequence “TTGTTTTGCTAAAAATGTACTCTATATAAAAGCTTT [XGTACX_site4027]”, the “gcPBM binding intensity (ln)” value stood at 9.38. For the sequence “TATATATATTATATATGTACACATATGTGAGAATGA [XGTACX_site2992]”, the “gcPBM binding intensity (ln)” value was found to be 9.79.

Regarding “TACTTCGATAATAATCGTACATATATATTGTATTTA [XGTACX_site5700]”, the “gcPBM binding intensity (ln)” value stood at 9.71. Turning to “CAAAAAATACGATGTTGTACTATGTATTCCTGATGT [XGTACX_site246]”, the “gcPBM binding intensity (ln)” value was 9.67. With “TATATATACATAAAAACATGCAATATATACACATTA [TGCATGCA_site444]”, the “gcPBM binding intensity (ln)” value turned out to be 9.64. With “AACTTTTTTATATGCACACATAAACAAGGATATATA [CACACA_site2874]” the figure was 9.67; with “ATTTTATTTTTTGAGTGTACTAGTTCAACAACTCCG [XGTACX_site8600]”, 9.54; with “TTCGACGAGAGCAAGTGTACTCTTGAATAATTTATA [XGTACX_site7613]”, 9.42. With “TGTTATATATTATATACATGCACAAAAGCAACACAA [TGCATGCA_site1009]” the figure was 9.63; with “ATATATATATACATACGTACACACAAATATTAAAAT [XGTACX_site4007]”, 9.95; with TCCTATATCACAAATGTGCACAGAAAAAAAAAATAT, 9.73. On to “AATATATATAATAATTGTACAATACGTATGTTATAT [XGTACX_site8745]”, for which the “gcPBM binding intensity (ln)” value is 9.81. With “TGTATACATAATATTTGTACATATTGTTATATATAT [XGTACX_site740]” the figure was 9.75. As to “TTATAAAAAAAAAAAAAAAAGAAAATGAATTCACGA [CACACA_negctrl_site1248]”, the “gcPBM binding intensity (ln)” value worked out at 9.34. With “AAAAATAAAAAAAACACACATACCTTATTTTTGTTC [CACACA_site2634]” the figure was 9.88; with “AATTAAAATTTTTTTTTTTTTTTTTTTTTTCTATTA [CACACA_negctrl_site1585]”, 9.16. With “TATATATAGAAACACACACACAAAAAAAAAAAAAAA [CACACA_site1506]” the figure was 10.3; with “TATATATCCTTCTATGCATGCATATGGATAGATTTC [TGCATGCA_site58]”, 9.48; with “ATTTAAAAAACTTTTAGCAAAAAAAAAAAATAATAA [TGCATGCA_negctrl_site191]”, 9.44. With “AAATTGATATTATATATATATATATATATATATATA [GTGCAC_negctrl_site482]” the figure was 9.47. On to “ATATTTATGACCGTACGTACCTAACAATACAATCAA [XGTACX_site4511]”, for which the “gcPBM binding intensity (ln)” value came to 9.68. As for “TGAATTTCAAAACAGTGTACATTAATATATATATAA [XGTACX_site7951]”, the “gcPBM binding intensity (ln)” value was 9.55. With “ATAATATATATATGTAGTACGTATATAATTTTAATA [XGTACX_site5228]” the figure was 9.88; with “AAAATTCTTATAAGATGTACAATTTGTAACACTATA [XGTACX_site510]”, 9.57. For the sequence “TCACATACATTACTTACACACCATATTAAGATATAC [CACACA_site4415]”, the “gcPBM binding intensity (ln)” value was 9.84. With “AAATAAATATATAATACACACAAAAATATAAAATGT [CACACA_site3711]” the figure was 10.3; with “TTTTGTATATATTATTGTACTTTTAATATAGATCGT [XGTACX_site5830]”, 9.64; with “TTATACTCACGTTACACACACACAATATATATATAT [CACACA_site4137]”, 10.3.

For “TTTTTTACAACACGAAAATGAACAATTATAATAAAT [TGCATGCA_negctrl_site301]”, the “gcPBM binding intensity (ln)” value stood at 9.52. With “TAATCATAAAAAAATACACACATATAAAATATAGAT [CACACA_site7020]” the figure was 9.9; with “ATATTTATAAATTGCACACAAATAATAACATTATAT [CACACA_site5322]”, 9.76; with “AAAAGTTAAGCAACAAATTTTATTTCTTATATATAA [TGCATGCA_negctrl_site134]”, 9.41. With “TTATACACTGATAAAAGTACATTTGTATGTTTTTTT [XGTACX_site8959]” the figure was 9.56; with “ATCTAAAAATTTTACGCACACAAGTAAAAAAAAAAA [CACACA_site2485]”, 9.83.

With “TTTTATAATCATAATAGTACTTTTTCTTTTTCACAT [XGTACX_site5017]”, the “gcPBM binding intensity (ln)” value is 9.71. With “AGTAAAAAAAATATCTGTACATATTAATATAAATGT [XGTACX_site6234]” the figure was 9.79; with “AAATATTATTCTTTTATTTTTAAACATATAATTATA [GTGCAC_negctrl_site136]”, 9.45. With “TTTTTTGTATTTTTCACACACTCTCTATCTCTCTCA [CACACA_site2095]” the figure was 9.94; with “AAAAAAAAAAAAAAAACACACATATATATTATTGTA [CACACA_site3979]”, 9.68; with “GAATATTACATGTATTGTACAGGTAATGTTAAAAAT [XGTACX_site8274]”, 9.7.

For “TATATATATATAATTACACACAATGTTCTATATATA [CACACA_site3235]”, the “gcPBM binding intensity (ln)” value turned out to be 9.8.

With “TATTTATTTAATTACACACGAACATATAACCATTTC [CACACA_site211]”, the “gcPBM binding intensity (ln)” value was found to be 9.86.

Regarding “TGTAGACTACATAGTAGTACATAATATATACATATA [XGTACX_site367]”, the “gcPBM binding intensity (ln)” value came out at 9.72. With “TTTTCTTTTAAACATATATATATATATATATATATA [XGTACX_negctrl_site559]” the figure was 9.7. As for “GTTGAAAAAAAAAATGCACACGCATACATATAATAT [CACACA_site8117]”, the “gcPBM binding intensity (ln)” value was determined as 9.99.

The values above are taken from the supplement of paper PMC11417369.
